The record followed here is the RNAGym collection of RNA variant scans (doi:10.7554/elife.90254).

Read counts are not given, so values of variants with three or more changes are uncertain.

B1: OR4K15 (parent)
chain: GUUAACGGUCAUAGGCCAUGGAAACUAGGAGCACCAUUUCGCUGCCAGUGAAGAAAUGAACAAAGAAAAUCUGGGCCAGGCAGGCAUCAAAAGAAAUAGUCUUGCGCUCAACCAGAAAGUCUGUAAUCAUUUUAAGGGUA

The data set covers variants of B1. Briefly: self-cleavage, relative activity (ratio to wild type); higher = more cleavage; in vitro, sequencing; the parent is a self-cleaving ribozyme.
For the variant GUUAACGGUCAUAGGCCAUGGAAACUAGGAGCACCAUUUCGCUGCCAGUGAAGAAAUGAACAAAGAGAAUCUGGGCCUGGCAGGCAUCAAAAGAAAUAGUCUUGCGCUCAACCGGAAAGUCUGUAAUCAUUUUAAGGGUA [A67G A78U A114G], the self-cleavage worked out at 0.07.
Next, GUUAACGGUCAUAGGCCAUGGAAACUAGGAGCACCAUUUCGCUGCCAGUGAAGAAAUGAACAAAGUAAAUCUGGGCCAGGCAGGCAUCAAAAGAAAUGGUCUUGCGCUCAACCAGAAAGUCUGUAAUCACUUUAAGGGUA [A66U A98G U130C]: 0.26.
In the case of GUUAACGGUCAUAGGCCAUGGAAACUAGGAGCACCAUUUCGCUGCCAGUGAAGAAAUGAACAAAGAGAAUCUGGGCCAGGCAGGCGUCAAAAGAAAUAGUCUUGCGCCCAACCAGAAAGUCUGUAAUCAUUUUAAGGGUA [A67G A86G U108C] it was 0.02; in that of GUUAACGGUCAUAGGCCAUGGAAACUAGGAGCACCAUUUCGCUGCCAGUGAAGAAAUGAACAAAGAGAAUCUGGGCCAGGCGGGCACCAAAAGAAAUAGUCUUGCGCUCAACCAGAAAGUCUGUAAUCAUUUUAAGGGUA [A67G A82G U87C], 0.22; in that of GUUAACGGUCAUAGGCCAUGGAAACUAGGAGCACCAUUUCGCUGCCAGUGAAGAAAUGAACAAAGGAAAUCUGGGCCAGGCAGGCAUCAAAAGAAAUAGUCUUGCGCUCAACCAGAAAGUCUGCAGUCAAUUUAAGGGUA [A66G U124C A126G U130A], 0.66.
In the case of GUUAACGGUCAUAGGCCAUGGAAACUAGGAGCACCAUUUCGCUGCCAGUGAAGAAAUGAACAAAGGAAAUCUGGGCCAGGCAGGCACCAAAAGAAGUAGUCUUGCGCUCAACCAGAAAGUCUGUAAUCAUUUUAAGGGUA [A66G U87C A96G] it was 2.11; in that of GUUAACGGUCAUAGGCCAUGGAAACUAGGAGCACCAUUUCGCUGCCAGUGAAGAAAUGAACAAAGUAAGUCUGGGCCAGGCAGGCAUCAGAAGAAAUAGUCAUGCGCUCAACCAGAAAGUCUGUAAUCAUUUUAAGGGUA [A66U A69G A90G U102A], 0.06; in that of GUUAACGGUCAUAGGCCAUGGAAACUAGGAGCACCAUUUCGCUGCCAGUGAAGAAAUGAACAAAGUAAAUCUGGGCCAGGCAGGCAUCAAAAGGAAUAGUCUUGCGCUCAACCAGGAAGUCUGUAAUCAUUUUAAGGGUA [A66U A94G A116G], 0.68.
GUUAACGGUCAUAGGCCAUGGAAACUAGGAGCACCAUUUCGCUGCCAGUGAAGAAAUGAACAAAGAGGAUCUGGGCCAGGCAGGCAUCAAAAGAAAUAGUCUUGUGCUCAACCAGAAAGCCUGUAAUCAAUUUAAGGGUA [A67G A68G C105U U120C U130A]: the self-cleavage was 0.04.
In the case of GUUAACGGUCAUAGGCCAUGGAAACUAGGAGCACCAUUUCGCUGCCAGUGAAGAAAUGAACAAAGAGAGUCUGGGCCAGGCAGGCAUCAAAAGAAAUAGUCUUGCGCUCAACCAGGAAGUCUGUAGUCAUUUUAAGGGUA [A67G A69G A116G A126G] it was 0.55; in that of GUUAACGGUCAUAGGCCAUGGAAACUAGGAGCACCAUUUCGCUGCCAGUGAAGAAAUGAACAAAGGAAAUCCGGGCCAGGCAGGCAUCAAAAGAAAUAGUCUUGCGCUCAACCAGAAAGUCAGUAACCAUUUUAAGGGUA [A66G U72C U122A U127C], 0.13; in that of GUUAACGGUCAUAGGCCAUGGAAACUAGGAGCACCAUUUCGCUGCCAGUGAAGAAAUGAACAAAGAGAAUCUGGGCCCGGCAGGCAUCAAAAGAAAUAGUCUUGCGCUCAACCAGGAAGUCUGUAAUCAUUUUAAGGGUA [A67G A78C A116G], 0.07.
Take GUUAACGGUCAUAGGCCAUGGAAACUAGGAGCACCAUUUCGCUGCCAGUGAAGAAAUGAACAAAGAGAAUCUGGGCCUGGCAGGCAUCAAAAGAAAUAGUCUUGCGCUCAACCAGAAAGUCUGUAAUCGUCUUAAGGGUA [A67G A78U A129G U131C]: the self-cleavage worked out at 0.05.
With GUUAACGGUCAUAGGCCAUGGAAACUAGGAGCACCAUUUCGCUGCCAGUGAAGAAAUGAACAAAGAGAAUCUGGGCCAGGCUGGCAACAAAAGAAAUUGUCUUGCGCUCAACCAGAAAGUCUGUAAUCAUUUUAAGGGUA [A67G A82U U87A A98U], the self-cleavage was found to be 0.45.
Regarding GUUAACGGUCAUAGGCCAUGGAAACUAGGAGCACCAUUUCGCUGCCAGUGAAGAAAUGAACAAAGGAAAUCUGGGCCAGGCAGGCACCAAAAGAAAUAGUCUUGCGCCCAACCAGAAAGUCUGUAAUCAUUUUAAGGGUA [A66G U87C U108C], the self-cleavage turned out to be 0.01.
Turning to GUUAACGGUCAUAGGCCAUGGAAACUAGGAGCACCAUUUCGCUGCCAGUGAAGAAAUGAACAAAGUAAAACUGGGCCAGGCAGGCAUCAAAAGAAAUAGUCUUGCGCUCAACCUGAAAGUCUGUAAUCAUUUUAAGGGUA [A66U U70A A114U], the self-cleavage was 0.04.
For the variant GUUAACGGUCAUAGGCCAUGGAAACUAGGAGCACCAUUUCGCUGCCAGUGAAGAAAUGAACAAAGGAAAUCAGGGCCAGGCAGGCAUCAAAAGAAAUAGUCUUGCGCUCAACCAGAAAGUCUGUGAUCAUUUUAAGGGUA [A66G U72A A125G], the self-cleavage was 0.
As for GUUAACGGUCAUAGGCCAUGGAAACUAGGAGCACCAUUUCGCUGCCAGUGAAGAAAUGAACAAAGAGAAUCUGGGCCUGGCAGGCAUCAAAAGAAAUAGUCUUGCGCUCAACCAGACAGUCUGUAAUCAUUUUAAGGGCA [A67G A78U A117C U139C], the self-cleavage was determined as 0.15.
In the case of GUUAACGGUCAUAGGCCAUGGAAACUAGGAGCACCAUUUCGCUGCCAGUGAAGAAAUGAACAAAGAGAAUCUGGGCCUGGCAGGCAUCAAAAGAAAUAGUCUUGCGCUCAACCAGAAAGUCUGUAAUCAUUUUAAGGGCA [A67G A78U U139C] it was 0.49; in that of GUUAACGGUCAUAGGCCAUGGAAACUAGGAGCACCAUUUCGCUGCCAGUGAAGAAAUGAACAAAGACAAUCUGGGCCAGGCAGGCAUCGAAAGAUAUAGUCUUGCGCUCAACCAGAAAGUCUGUAAUCACUUUAAGGGUA [A67C A89G A95U U130C], 1.2.
Next, GUUAACGGUCAUAGGCCAUGGAAACUAGGAGCACCAUUUCGCUGCCAGUGAAGAAAUGAACAAAGGAAAUCUGGGCCAGGCAGGCAUCAAAAGAAAUAGUCUUGCGCUCAACCAGAAAGUCUGUAACCAGUUUAAGGGUA [A66G U127C U130G]: 0.57.
